Reference: the supplement of paper PMC4166925
± gives the standard deviation of the averaged measurements. The full ranking holds about 33,000 sequences; the median of “E-score (dimensionless, -0.5 to 0.5)” is about -0.046, and the highest 2% start at about 0.36. This is one part of the list.

System: T1, SpTbr T-box DNA-binding domain (GST fusion)
T1 sequence: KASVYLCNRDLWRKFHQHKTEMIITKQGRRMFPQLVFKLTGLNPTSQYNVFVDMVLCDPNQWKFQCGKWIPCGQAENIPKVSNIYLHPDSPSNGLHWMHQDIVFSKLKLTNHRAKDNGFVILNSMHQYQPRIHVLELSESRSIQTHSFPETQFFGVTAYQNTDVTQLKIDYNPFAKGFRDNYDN
Assay: PBM E-score of 8-mer (E-score (dimensionless, -0.5 to 0.5)); Tbr is Tbrain of the sea star Patiria miniata (Pm) or the sea urchin Strongylocentrotus purpuratus (Sp); higher = stronger binding preference; most listed sequences are background and not binding sites
Details: the construct has about 5 more residues each side
Outline: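 Expression of GST-fused Tbr T-box DNA-binding domains, each holding the full T-box plus roughly five flanking residues, was carried out in BL21 E. coli at 20 °C, with purification by glutathione affinity chromatography. Universal Agilent arrays made double-stranded by primer extension were incubated with the protein at 200 nM in PBS (pH 7.5), then scanned and quantified. All ungapped 8-mers were scored from probe intensities, and each received an enrichment E-score from the Universal PBM Analysis Suite, averaged over duplicate arrays.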

Sequence	PBM E-score of 8-mer
GGTCGGCA	-0.058 ± 0.026
ACATCTTC	-0.0301 ± 0.031
AAGAGGCT	-0.161 ± 0.0026
GATCGCGC	0.352 ± 0.025
TCCCTAGA	-0.273 ± 0.0067
CGTTCATA	0.00922 ± 0.017
CAACCTGA	-0.0529 ± 0.059
CACGATAA	0.104 ± 0.02
CATGCCGC	-0.0385 ± 0.067
ACCGTTAA	0.166 ± 0.061
GAGTTTGA	0.00341 ± 0.029
ACGGAAAC	0.0444 ± 0.063
ACCTGGCC	-0.0587 ± 0.06
CATATACG	-0.0849 ± 0.043
ATTTATCG	0.129 ± 0.061
CGAGTGCC	0.163 ± 0.036
AACAAGGA	-0.0954 ± 0.0015
GGAGCTCC	-0.3623 ± 0.0034
CCTGGGCG	0.118 ± 0.03
GCATACTA	-0.126 ± 0.0031
CCTACCAG	-0.021 ± 0.048
CCTAGCTA	-0.0724 ± 0.033
CCGGGTCA	-0.0393 ± 0.042
CACATTTA	0.194 ± 0.015
CAGAAAGA	-0.0118 ± 0.021

Sequence	PBM E-score of 8-mer
TGAAATCA	0.0637 ± 0.11
ACCGATGA	0.0444 ± 0.011
ATACAACC	-0.00881 ± 0.0022
CCCATTCA	-0.0966 ± 0.043
ACTTGAAA	-0.19 ± 0.013
AGGTTGTG	0.155 ± 0.045
ATGGCCGC	-0.0137 ± 0.044
CACGTAGA	0.0751 ± 0.027
CGTTTGGC	0.108 ± 0.061
GAACCCCA	-0.0647 ± 0.055
CGACTAAC	0.179 ± 0.0039
CCGATCTC	-0.0489 ± 0.059
CGGTACAG	-0.159 ± 0.028
CGGTTAAG	-0.0569 ± 0.1
AAGGACCT	-0.198 ± 0.015
AGTGAATC	-0.0392 ± 0.0088
GCAAGAGC	-0.0244 ± 0.092
GAATCCCC	-0.0952 ± 0.086
CACATCCG	0.201 ± 0.034
ACTCAGTC	0.0017 ± 0.025
GCCAGTCA	0.137 ± 0.018
CGATGACG	0.0899 ± 0.049
AGCATAAT	-0.177 ± 0.0018
GCCCTCTA	-0.0814 ± 0.06
AAAACATG	-0.0547 ± 0.0052

Sequence	PBM E-score of 8-mer
CAGTTACA	0.0479 ± 0.038
ACGCTCAG	0.0449 ± 0.0089
GCAGGGCA	-0.0201 ± 0.016
CTCTCGAC	0.112 ± 0.0017
GCGATTCA	0.024 ± 0.0043
AGCTGATC	-0.113 ± 0.02
CGACGGGA	-0.167 ± 0.043
AGTAGTAA	-0.0989 ± 0.016
AGATATCG	0.089 ± 0.025
AGGGACCG	-0.302 ± 0.12
CACTGTGA	0.265 ± 0.025
CTCTTGAA	-0.339 ± 0.069
AATTAGAC	-0.161 ± 0.047
ATGACTAG	-0.0601 ± 0.081
AGGAGCGA	-0.0089 ± 0.023
ATTGGTCA	0.0393 ± 0.019
ATCCGGCA	-0.12 ± 0.012
ATCATCGA	-0.174 ± 0.089
TACGCAAA	-0.107 ± 0.018
ATAGAACG	-0.159 ± 0.032
AGTCGAGA	-0.0286 ± 0.025
TAGTGGCA	0.229 ± 0.025
AAAGGCAG	-0.0504 ± 0.012
CAACGATC	-0.06557 ± 0.00012
TCAACGGA	0.0433 ± 0.055

Sequence	PBM E-score of 8-mer
CAACTGGA	0.0228 ± 0.025
AAGAATTG	-0.04217 ± 0.00012
GATGCGCC	-0.249 ± 0.0032
TGAGCCAA	-0.229 ± 0.019
GACACACC	0.321 ± 0.016
CTATGCAC	-0.0878 ± 0.03
ATGGGAGC	-0.168 ± 0.01
TAGCCATA	0.00574 ± 0.024
ACGCTAGC	0.0224 ± 0.019
AGAATTAC	-0.216 ± 0.062
GCTAGAAA	-0.0471 ± 0.028
GAATGTCA	0.0875 ± 0.014
CTCACACA	0.438 ± 0.0081
CCAGACCA	-0.035 ± 0.018
TGACACAA	0.296 ± 0.0053
AATGTGTC	0.413 ± 0.012
CCATCCCA	-0.0749 ± 0.041
CGTTCTCA	0.219 ± 0.015
CCCTTAGA	-0.16 ± 0.051
CAACCATC	-0.0294 ± 0.026
GGTTCGAC	0.08281 ± 0.00073
ACTACGCA	0.0779 ± 0.019
CAGAGAGC	-0.343 ± 0.032
AACGGGCC	-0.178 ± 0.025
AGTGCATA	-0.00926 ± 0.039

Sequence	PBM E-score of 8-mer
ATCTCCCC	-0.119 ± 0.0032
ACAAATTA	-0.0171 ± 0.0047
ATGGGTCA	-0.153 ± 0.027
CATCAGCC	-0.00502 ± 0.046
GATCAAGA	-0.0461 ± 0.025
AACGCGGG	-0.0217 ± 0.048
AATGAAAC	-0.221 ± 0.044
CACCGAGG	0.117 ± 0.067
AAACTCGG	-0.224 ± 0.046
ACCTCCTG	-0.0283 ± 0.016
ACCCTGGG	0.0224 ± 0.046
GCGATCCA	-0.0191 ± 0.011
AGACGCCA	0.0474 ± 0.026
TACCTTCA	0.0858 ± 0.0042
CCAGCCAG	-0.0848 ± 0.024
AGATATTA	-0.0938 ± 0.019
CATGATCA	-0.119 ± 0.0063
TAAGAGTA	-0.233 ± 0.0029
CCAGAGGC	0.00508 ± 0.031
CTGCATTA	-0.0986 ± 0.045
GGACTGGA	-0.286 ± 0.059
AGGCTATA	-0.246 ± 0.079
CCGCTTAA	-0.0506 ± 0.011
ACCTGGGG	-0.00323 ± 0.044
CGACGCCC	0.104 ± 0.07

Sequence	PBM E-score of 8-mer
AAAGAGTC	-0.219 ± 0.015
AAGTGTCT	0.292 ± 0.033
ATTTACAG	-0.0503 ± 0.066
ACAGATTC	0.0515 ± 0.029
GCACCGCA	-0.0203 ± 0.0064
TGTCGACA	0.384 ± 0.01
AGGTGAAG	0.215 ± 0.016
GTACATAA	-0.0407 ± 0.054
GCCGCCCC	0.0574 ± 0.093
ACTGCAGC	0.116 ± 0.055
ATCGGCAA	0.0555 ± 0.027
ACCGCCAC	0.2135 ± 0.0013
AAGGAATT	-0.0931 ± 0.045
CTGCTGCC	-0.0728 ± 0.033
GGTAGACA	-0.025 ± 0.028
ATCTCTTA	-0.0572 ± 0.0029
AGAGTCCC	-0.216 ± 0.068
ATGTGCAC	0.117 ± 0.054
AAGCAGCT	-0.117 ± 0.061
AATAGAGA	-0.097 ± 0.086
GCATAGAA	-0.126 ± 0.09
CAAGCGAG	0.0572 ± 0.052
CATCCCCA	0.0314 ± 0.046
ACGAACGG	-0.0269 ± 0.066
GTGGAGTA	0.00844 ± 0.023

Sequence	PBM E-score of 8-mer
ACGTCTCG	0.0463 ± 0.043
CATTAATA	-0.151 ± 0.057
AACCGTGG	0.0513 ± 0.049
ACCCAGTA	-0.208 ± 0.024
CCGCGCGC	0.14 ± 0.088
AGCACGAG	0.114 ± 0.06
GGTATCAA	0.0885 ± 0.011
CGAGAACG	0.3603 ± 0.0018
AGGGATCC	-0.181 ± 0.022
ATGTCGCG	0.263 ± 0.02
GCGAGACC	0.295 ± 0.03
ACTTGTTC	-0.108 ± 0.0013
GCTGACCA	-0.241 ± 0.031
GAAGAACC	-0.131 ± 0.027
AATGAATT	-0.0718 ± 0.064
CCTCCCGC	-0.00464 ± 0.079
ACAGGACC	-0.316 ± 0.035
AGCATCCC	-0.2222 ± 0.00073
CACATGGG	0.0964 ± 0.055
AGACCGAT	-0.131 ± 0.041
GTTGGGGA	-0.00899 ± 0.045
AGTGGGTA	-0.215 ± 0.03
